# Assay results reported in patent US20240409576A1, “-ent-19-norprogesterone, compositions and uses thereof to treat traumatic brain injury (TBI), including concussions-” (Oragenics, Inc., priority 2015, published 2024).
# Description: An Example of an ent-19-norprogesterone (PRV-002) solution that is used in accordance with Examples 26 and 27.
# The PRV-002 solution is prepared by adding about 30 mg of PRV-001 compound to about 1 ml of 35.8% 2-Hydroxypropyl-p-cyclodextrin. Solution is hazy after mixing for about 60 min. Then about 0.1 ml of about 35.8% 2-Hydroxypropyl-P-cyclodextrin is added to about 1 ml of PRV-002-Cyclodextrin mixture. Solution is hazy after mixing for about 120 min. Additional 0.1 ml of about 35.8% 2-Hydroxypropyl-p-cyclodextrin is added to about 1.1 ml of PRV-002-Cyclodextrin mixture and left on mixing overnight (0/N). […] About 0.1 ml more of about 35.8% 2-Hydroxypropyl-p-cyclodextrin is added to about 1.2 ml of PRV-002-Cyclodextrin mixture. Addition of another about 0.3 ml (0.1+0.1+0.1) aliquot of about 35.8% 2-Hydroxypropyl-p-cyclodextrin only slightly improves the clarity of PRV-002 solution. It is believed that PRV-002 is in solution at about 23 mg/mi, and slight haziness is some sort of an artifact.
smiles,measurement,setting,value
"CC(=O)[C@@H]1CC[C@@H]2[C@H]3CCC4=CC(=O)CC[C@H]4[C@@H]3CC[C@]21C (single isomer, unassigned; ent-19) [PRV-002, ent-19-norpregn-4-ene-3,20-dione]",Final Calculated concentration,30 mg PRV-002 in ~1.3 ml Solution 1 (35.8% 2-Hydroxypropyl-β-cyclodextrin),23 mg/mL
same,Concentration at which PRV-002 is believed to be in solution,"about 35.8% 2-Hydroxypropyl-p-cyclodextrin, ~1.3 ml",about 23 mg/mi
